# Data taken from the supplement of paper PMC8728848.
# The other results are listed elsewhere or left out.
# How the values were obtained:
# Assay in all cases: glycan array binding signal (z-score within array); higher = stronger binding
# Conditions in all cases: glycan notation: IUPAC condensed, linker removed
# [1] = biological target: Man(a1-3)[Man(a1-6)]Man(a1-6)[Man(a1-3)]Man
# Procedure, shortened: (§1)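 Negative Z-scores can be read as non-binding. The Z-score is calculated within each array and then averaged across arrays of one protein sequence at different concentrations or buffers and across linkers. Arrays, 3228 in all, were curated from the Consortium for Functional Glycomics database and kept only where the protein sequence was available.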
# [2] = biological target: Man(a1-3)[Man(a1-6)]Man(a1-6)[Man(a1-3)]Man(b1-4)GlcNAc(b1-4)GlcNAc
# Procedure, shortened: as §1
# [3] = biological target: Man(a1-3)[Man(a1-6)]Man(b1-4)GlcNAc(b1-4)GlcNAc
# Procedure, shortened: as §1
# [4] = biological target: Man(a1-3)[Man(a1-6)]Man(b1-4)GlcNAc(b1-4)[Fuc(a1-6)]GlcNAc
# Procedure, shortened: as §1
# [5] = biological target: Man(a1-6)Man
# Procedure, shortened: as §1
# [6] = biological target: Man(b1-4)GlcNAc
# Procedure, shortened: as §1
# [7] = biological target: MurNAc(b1-4)GlcNAc
# Procedure, shortened: as §1
# [8] = biological target: Neu5Ac(a2-3)Gal
# Procedure, shortened: as §1
# [9] = biological target: Neu5Ac(a2-3)Gal(b1-3)GalNAc
# Procedure, shortened: as §1
# [10] = biological target: Neu5Ac(a2-3)Gal(b1-3)GalNAc(b1-3)Gal(a1-4)Gal(b1-4)Glc
# Procedure, shortened: as §1
# [11] = biological target: Neu5Ac(a2-3)Gal(b1-3)GalNAc(b1-4)[Neu5Ac(a2-3)]Gal(b1-4)Glc
# Procedure, shortened: as §1
# [12] = biological target: Neu5Ac(a2-3)Gal(b1-3)GalNAc(b1-4)[Neu5Ac(a2-8)Neu5Ac(a2-3)]Gal(b1-4)Glc
# Procedure, shortened: as §1
# [13] = biological target: Neu5Ac(a2-3)Gal(b1-3)GalNAc6S
# Procedure, shortened: as §1
# [14] = biological target: Neu5Ac(a2-3)Gal(b1-3)GlcNAc
# Procedure, shortened: as §1
# [15] = biological target: Neu5Ac(a2-3)Gal(b1-3)GlcNAc(b1-2)Man
# Procedure, shortened: as §1
# [16] = biological target: Neu5Ac(a2-3)Gal(b1-3)GlcNAc(b1-2)Man(a1-3)[GlcNAc(b1-4)][Neu5Ac(a2-3)Gal(b1-3)GlcNAc(b1-2)Man(a1-6)]Man(b1-4)GlcNAc(b1-4)GlcNAc
# Procedure, shortened: as §1
# [17] = biological target: Neu5Ac(a2-3)Gal(b1-3)GlcNAc(b1-2)Man(a1-3)[Neu5Ac(a2-3)Gal(b1-3)GlcNAc(b1-2)Man(a1-6)]Man(b1-4)GlcNAc(b1-4)GlcNAc
# Procedure, shortened: as §1
# [18] = biological target: Neu5Ac(a2-3)Gal(b1-3)GlcNAc(b1-3)Gal(b1-3)GlcNAc
# Procedure, shortened: as §1
# [19] = biological target: Neu5Ac(a2-3)Gal(b1-3)GlcNAc(b1-3)Gal(b1-4)GlcNAc
# Procedure, shortened: as §1
# [20] = biological target: Neu5Ac(a2-3)Gal(b1-3)GlcNAc(b1-3)GalNAc
# Procedure, shortened: as §1
# [21] = biological target: Neu5Ac(a2-3)Gal(b1-3)GlcNAc(b1-4)Gal(b1-4)Glc
# Procedure, shortened: as §1
# [22] = biological target: Neu5Ac(a2-3)Gal(b1-3)GlcNAc(b1-6)GalNAc
# Procedure, shortened: as §1
# [23] = biological target: Neu5Ac(a2-3)Gal(b1-3)GlcNAc6S
# Procedure, shortened: as §1
# [24] = biological target: Neu5Ac(a2-3)Gal(b1-3)[Fuc(a1-4)]GlcNAc
# Procedure, shortened: as §1
# [25] = biological target: Neu5Ac(a2-3)Gal(b1-3)[Fuc(a1-4)]GlcNAc(b1-3)Gal(b1-3)[Fuc(a1-4)]GlcNAc
# Procedure, shortened: as §1
# [26] = biological target: Neu5Ac(a2-3)Gal(b1-3)[Fuc(a1-4)]GlcNAc(b1-3)Gal(b1-4)[Fuc(a1-3)]GlcNAc
# Procedure, shortened: as §1
# [27] = biological target: Neu5Ac(a2-3)Gal(b1-3)[GlcNAc(b1-6)]GalNAc
# Procedure, shortened: as §1
# [28] = biological target: Neu5Ac(a2-3)Gal(b1-3)[Neu5Ac(a2-6)]GalNAc
# Procedure, shortened: as §1
# [29] = biological target: Neu5Ac(a2-3)Gal(b1-3)[Neu5Ac(a2-6)]GlcNAc(b1-3)[Fuc(a1-3)[Gal(b1-4)]GlcNAc(b1-6)]Gal(b1-4)Glc
# Procedure, shortened: as §1
# [30] = biological target: Neu5Ac(a2-3)Gal(b1-3)]Neu5Ac(a2-3)Gal(b1-4)]GlcNAc
# Procedure, shortened: as §1
# [31] = biological target: Neu5Ac(a2-3)Gal(b1-4)Glc
# Procedure, shortened: as §1
# [32] = biological target: Neu5Ac(a2-3)Gal(b1-4)GlcNAc
# Procedure, shortened: as §1
# [33] = biological target: Neu5Ac(a2-3)Gal(b1-4)GlcNAc(b1-2)Man
# Procedure, shortened: as §1
# [34] = biological target: Neu5Ac(a2-3)Gal(b1-4)GlcNAc(b1-2)Man(a1-3)[GlcNAc(b1-4)][Neu5Ac(a2-3)Gal(b1-4)GlcNAc(b1-2)Man(a1-6)]Man(b1-4)GlcNAc(b1-4)GlcNAc
# Procedure, shortened: as §1
# [35] = biological target: Neu5Ac(a2-3)Gal(b1-4)GlcNAc(b1-2)Man(a1-3)[Neu5Ac(a2-3)Gal(b1-4)GlcNAc(b1-2)Man(a1-6)]Man(b1-4)GlcNAc(b1-4)GlcNAc
# Procedure, shortened: as §1
# [36] = biological target: Neu5Ac(a2-3)Gal(b1-4)GlcNAc(b1-2)Man(a1-3)[Neu5Ac(a2-3)Gal(b1-4)GlcNAc(b1-2)Man(a1-6)]Man(b1-4)GlcNAc(b1-4)[Fuc(a1-6)]GlcNAc
# Procedure, shortened: as §1
# [37] = biological target: Neu5Ac(a2-3)Gal(b1-4)GlcNAc(b1-2)Man(a1-3)[Neu5Ac(a2-6)Gal(b1-4)GlcNAc(b1-2)Man(a1-6)]Man(b1-4)GlcNAc(b1-4)GlcNAc
# Procedure, shortened: as §1
# [38] = biological target: Neu5Ac(a2-3)Gal(b1-4)GlcNAc(b1-2)[Neu5Ac(a2-3)Gal(b1-4)GlcNAc(b1-4)]Man(a1-3)[GlcNAc(b1-4)][Neu5Ac(a2-3)Gal(b1-4)GlcNAc(b1-2)[Neu5Ac(a2-3)Gal(b1-4)GlcNAc(b1-6)]Man(a1-6)]Man(b1-4)GlcNAc(b1-4)GlcNAc
# Procedure, shortened: as §1
binder,measurement,setting,value
PX9937F-bfa-516-16-516 (Bacteroides fragilis) (protein) LDIDPTSSIADSNYWKTEAQFSTFNVGLHALLRECSFNFFLLGEPRADIYGDVPFGGEATQGMERLPFNTINKENTGISNFAGMYKVINQINLMIAKTKETTVLSEAGKNYYLGEAYGMRAYLYFHLLRSWGDVILYLDYTNGASLDLSNLSKAASPAEEVMKQIKEDITASEKGFGSDYSFKYGRYYWSMAATQMLKGEVYLWSGRQMGGGTADYTTAKTALQSIVSNANVSLQDDFSKVFAYNNKDNSEIIFSIRNAKDEYNMWDDRFRQNLVPQQAYMTSTYCNKEGVSFKDLPEGQLNGLIRLQIRYDLYNKAFRDGDTRKDASMTAVYQKQQDGTVKYIAPFCNKYQGVLLDGASQRSFLNDYPIYRYADCLLLLAEAKALLGEDPTAEINQVRERAYGKEFFEANKATLAYPNDKGDFYTDNKYMSGDEDPLEAILKERMREFMFEGKRWYDLRLLGADYVTKRTSAVATRLLWPINESVLTDNPALKQTPGYQN,glycan array binding signal (z-score),[1],0.315
same,glycan array binding signal (z-score),[2],0.247
same,glycan array binding signal (z-score),[3],-0.19
same,glycan array binding signal (z-score),[4],-0.38
same,glycan array binding signal (z-score),[5],-0.038
same,glycan array binding signal (z-score),[6],-0.197
same,glycan array binding signal (z-score),[7],-0.278
same,glycan array binding signal (z-score),[8],-0.347
same,glycan array binding signal (z-score),[9],-0.269
same,glycan array binding signal (z-score),[10],-0.351
same,glycan array binding signal (z-score),[11],-0.047
same,glycan array binding signal (z-score),[12],-0.117
same,glycan array binding signal (z-score),[13],-0.104
same,glycan array binding signal (z-score),[14],-0.281
same,glycan array binding signal (z-score),[15],0.046
same,glycan array binding signal (z-score),[16],-0.018
same,glycan array binding signal (z-score),[17],-0.063
same,glycan array binding signal (z-score),[18],-0.249
same,glycan array binding signal (z-score),[19],-0.213
same,glycan array binding signal (z-score),[20],0.059
same,glycan array binding signal (z-score),[21],-0.262
same,glycan array binding signal (z-score),[22],-0.165
same,glycan array binding signal (z-score),[23],-0.065
same,glycan array binding signal (z-score),[24],-0.201
same,glycan array binding signal (z-score),[25],0.008
same,glycan array binding signal (z-score),[26],-0.15
same,glycan array binding signal (z-score),[27],-0.036
same,glycan array binding signal (z-score),[28],-0.172
same,glycan array binding signal (z-score),[29],-0.295
same,glycan array binding signal (z-score),[30],-0.301
same,glycan array binding signal (z-score),[31],-0.325
same,glycan array binding signal (z-score),[32],-0.262
same,glycan array binding signal (z-score),[33],0.087
same,glycan array binding signal (z-score),[34],-0.331
same,glycan array binding signal (z-score),[35],-0.233
same,glycan array binding signal (z-score),[36],-0.216
same,glycan array binding signal (z-score),[37],-0.011
same,glycan array binding signal (z-score),[38],-0.243
